For assay [1], the target named is T1, EPG-7 C-terminal fragment (residues 1227-1338, Claw domain), yeast two-hybrid fusion (C. elegans) (UniProt Q22342).
T1 sequence: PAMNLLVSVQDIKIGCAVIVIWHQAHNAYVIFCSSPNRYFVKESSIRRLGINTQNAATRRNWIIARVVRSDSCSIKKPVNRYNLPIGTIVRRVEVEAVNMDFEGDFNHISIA
In words: two-hybrid; DupLEX-A system: bait plasmid pEG202Gtwy and prey plasmid pJG4-5Gtwy in yeast EGY48 with the lacZ reporter plasmid pSH18-34; transformants on X-gal plates; which partner was bait is not stated.

By UniProt entry, the sequences of proteins in these tests, tags left out.
UniProt Q09490: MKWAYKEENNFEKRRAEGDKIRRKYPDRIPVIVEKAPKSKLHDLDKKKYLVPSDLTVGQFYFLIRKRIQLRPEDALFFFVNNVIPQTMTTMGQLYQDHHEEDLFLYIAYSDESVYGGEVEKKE

Assay [2] deals with LGG-1 (LC3, GABARAP, and GATE-16 family-1), yeast two-hybrid fusion (C. elegans) (UniProt Q09490). The assay is described as above.
Assay [3] has as its target T2, FLAG-EPG-7 C-term (N-terminal FLAG-tagged EPG-7 C-terminal fragment, Claw domain) (C. elegans) (UniProt Q22342).
T2 sequence: T1 sequence
In words: pull-down; in vitro binding assay: purified FLAG-EPG-7 C-term (about 0.5 ug) and in vitro translated T7-ALLO-1b (4 uL) in 10 mM Tris-HCl pH 7.4, 150 mM NaCl, 0.5 mM EDTA, 0.1% Triton X-100, 1 mM PMSF, 4 C, 1 h; captured on anti-FLAG M2 magnetic beads; blot with anti-T7 and anti-FLAG; only the target purified.

Where a chain is given by its changes, count along the chain named. Names and notes keep the numbering of the source. No constants are given. Whether binding was seen depends on the method and setting. For some assays here: In cells and extracts the contact can be indirect. Some results given as binding are weak or reduced against the parent protein; the word gives no strength. Tags and fused reporters may be left off the sequences shown.

B1: ALLO-1b (allophagy-1 isoform b), full length, yeast two-hybrid fusion (protein, UniProt Q9U389 1-402)
chain: MNDPLDSLSNDEFEIIETFDPETEDREDQWSIQQSIRIEPISIQMPNTLQSQRAPSPVGSKAPESLKDEDPDRTPEASIVETPLLTETLKEDRTPMSTPLASLVNSSQSPEFTLQNMSIVSESECSNNSSLVNVADVESTEIALRTSLLLVSELKSQLQAAKMSESTLLKSNSNHEIEENKKLSEKMEVMKNEFELKMQESAASVEKVIQEKDSAIEQLKVQLAQSQQVAELWKQGAEKNSNAQYSDSKTTIDRLLEENSKLRNLVDEEVARRLEESERRKLAEDQLKHARGGSVFDPPASFVASQLAERTTYSLNLEHELITLRKELEETKEALKKSVEESSNKDEIVSALHELAGPTGEHPHARFERAGDQQSEAEMSSTWSAGRLLELSRQIVHFISHQ
For B1, the binding result in assay [1] and in assay [2] was “binds” throughout.

B2: T7-ALLO-1b (full-length ALLO-1b, in vitro translated) (protein, UniProt Q9U389 1-402)
chain: B1 chain
In the case of B2, the binding entry in assay [3] is on record as “binds”.

B3: T7-ALLO-1b D11A/E12A (FIR mutant, in vitro translated) (protein, UniProt Q9U389 1-402)
chain: B1 chain with D11A, E12A
Regarding B3, in assay [3], the binding result is recorded as “no binding”.

B4: ALLO-1 N-terminal region (residues 1-180), yeast two-hybrid fusion (domain or fragment, UniProt Q9U389 1-180)
chain: MNDPLDSLSNDEFEIIETFDPETEDREDQWSIQQSIRIEPISIQMPNTLQSQRAPSPVGSKAPESLKDEDPDRTPEASIVETPLLTETLKEDRTPMSTPLASLVNSSQSPEFTLQNMSIVSESECSNNSSLVNVADVESTEIALRTSLLLVSELKSQLQAAKMSESTLLKSNSNHEIEEN
In the case of B4, in assay [1], the binding result was “binds”.

(Values after PMC10874384.)
